Among all 7,900 compounds or so, about 400 (5.1%) showed an effect of 50% or more. This is one part of the list.

Sequence of Parkinson's disease protein 7 (PARK7/DJ1) (Q99497 whole entry, looked up, the tested form may be a part): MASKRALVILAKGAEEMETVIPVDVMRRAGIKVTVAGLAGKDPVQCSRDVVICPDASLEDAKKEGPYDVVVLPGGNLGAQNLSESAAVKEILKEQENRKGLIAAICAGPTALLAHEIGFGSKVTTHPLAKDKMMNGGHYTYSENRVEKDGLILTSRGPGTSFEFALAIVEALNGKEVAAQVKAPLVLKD

This test concerns the target Parkinson's disease protein 7 (PARK7/DJ1) (human, UniProt Q99497). As to the kind of experiment: primary screen, percent inhibition; read as competition with a fluorescent probe by fluorescence polarization; higher = more effect of the substance. As to conditions: 100 µM. The essentials:
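Fluorescence-polarization probe displacement (JYQ-107, 20 nM final, 2 h) after 2 h preincubation of PARK7 (0.2 μM final) with each fragment at 100 μM final. Read-out ex/em 480/520 nm; remaining activity derived from FP signal loss relative to reference controls.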
Take `CC1CCN(CCOc2cccc(B3OC(C)(C)C(C)(C)O3)c2)CC1`: the Inhibition % was determined as 0.586%.
Next, `Cc1cc(C(=O)CCl)c(C)n1CC(N)=O`: 4.29%; `CN(C)C(=O)Oc1ccc(C#N)cc1`: 3.63%.
In the case of `N#Cc1ccc(F)cn1`, the Inhibition % was 6.02%.
Then `COc1ccc(C=C(C#N)c2ccccn2)cc1O`, with 19.3%.
For `C=CC(=O)NC1CC(N2CCC(C(F)(F)F)CC2)C1` (stereo not shown), the Inhibition % amounted to 10.7%.
For `Cc1ccccc1NC(=O)C(C#N)=Cc1cccnc1`, the Inhibition % is 13.6%.
Then `CC1(C)OB(c2cccc3cc[nH]c23)OC1(C)C`, with 3.3%; and `C=CC(=O)NCC1(c2ccccc2)CCOCC1`, with 5.18%; and `C=CS(=O)(=O)Oc1cc(C)cc(C)c1`, with 7.19%.
Then `C=CS(=O)(=O)C1CCCCC1`, with 7.8%.
As to `CC(C)Oc1ccc(B2OC(C)(C)C(C)(C)O2)cc1F`, the Inhibition % is listed as 29.9%.
Then `C=CC(=O)N1CCc2cc(Cl)nnc2C1`, with 6.51%.
Then `CC1CCN(C(=O)CCN2CCSC2=O)c2ccccc21` (stereo not shown), with 15.3%; and `Cc1ccc(C=C(C#N)C(=O)N2CCCC2)s1`, with 1.3%.
Next, `C=CC(=O)Nc1cc(NC(=O)C2CCC2)ccc1F`: 19.5%; `N#CC=C(c1ccc(F)cc1)N1CCOCC1`: 6.31%.
`Cc1nscc1C(=O)NCCN1C(=O)CCC1=O`: the Inhibition % came to 14%.
Next, `Cc1ccc(S(N)(=O)=O)cc1NC(=O)CCl`: 5.6%; `CC(C)(C)OC(=O)N1CCCC(CB2OC(C)(C)C(C)(C)O2)C1` (stereo not shown): 2.29%.
Then `N#CC(=Cc1ccsc1)C(=O)NC1CCCCC1`, with 6.17%; and `COc1ccc(NC(=O)CCl)cc1Cl`, with 28.1%; and `C=CC(=O)NC[C@@H]1CCN(C)[C@H]1c1cccnc1` (racemic), with 8.57%.
Then `O=C(O)Cn1nc(-c2ccccc2)oc1=O`, with 2.77%; and `COC1CS(=O)(=O)CC1Cl` (stereo not shown), with 8.34%.
In the case of `C=CC(=O)N1CCN(CCC)C(=O)C1(C)C`, the Inhibition % was determined as 6.22%.
Next, `O=S(=O)(F)[C@@H]1CN(Cc2ccccc2)C[C@H]1c1ccc(F)cc1` (racemic): 5.52%.
With `CS(=O)(=O)n1cnc2ccccc21`, the Inhibition % came to 11.4%.
Then `C=CC(=O)N[C@@H](C)c1nccs1`, with 6.7%; and `O=c1[nH]c(=O)n(C2CC2)c2nc(C3CC3)nc(S)c12`, with 3.15%.
Then `O=C(Cc1ccc(S(=O)(=O)F)cc1)NCc1ccccn1`, with 5.8%; and `CC1(C)OB(Cc2cc(F)cc(F)c2)OC1(C)C`, with 6.97%.
In the case of `C=CC(=O)N1CCOC2(CCOC2C)C1` (stereo not shown), the Inhibition % is listed as 3.31%.
Next, `Cl.O=C(CCl)N1CCN(Cc2ccccc2F)CC1`: 9.37%.
Then `CN1CCN(CCOc2ccc(B3OC(C)(C)C(C)(C)O3)cc2)CC1`, with 4.31%; and `C=CC(=O)NC1COC(C2CC2)C1` (stereo not shown), with 4.28%.
Next, `C=CC(=O)NC1CCCn2nc(C)nc21` (stereo not shown): 10.1%; `CCC1CCCCN1C(=O)C=Cc1cnn(C)c1` (stereo not shown): 5.92%.
Consider `C=CC(=O)NCc1cn2ccccc2n1`, for which the Inhibition % came to 8.6%.
Next, `O=C(CN1CCSC1=O)Nc1ccc(F)c(F)c1`: 0.431%; `Cc1ccc(C(=O)Nc2ccc(-c3noc(=O)[nH]3)cc2)o1`: 6.77%.
With `CN(CCn1cnc(C#N)n1)Cc1ccc(F)cc1`, the Inhibition % is 5.53%.
Next, `O=C1CN=C(S)N1c1ccccc1C(F)(F)F`: 8.07%; `CC(=O)Nc1ccc(NC(=O)CCl)c(C(F)(F)F)c1`: 17.2%.
Next, `CS(=O)(=O)OC1CCOCC1`: 8.67%; `C=CC(=O)NC1(C)CC(F)(F)C1`: 10.7%; `N#CC(=Cc1ccc(F)cc1)C(=O)O`: 2.9%.
Next, `O=C(CCl)NC(C1CC1)C1CC1`: 7.26%; `CCOc1ccc(OCC2CO2)cc1` (stereo not shown): 1.71%.
On to `O=C(CCl)N1CCN(C(=O)CCl)CC1`, for which the Inhibition % stood at 36.5%.
Then `C=CC(=O)N1CCCC(c2nccn2C)C1` (stereo not shown), with 11%; and `C=CC(=O)N1CCc2cc(C(=O)O)ccc2C1`, with 12.6%; and `C=CC(=O)NC(c1nccn1C)C1CCOCC1` (stereo not shown), with 14.2%.
Then `CC(C)(C)c1cc(C#N)n[nH]1`, with 3.68%; and `Cl.O=C(O)C1CCN(C(=O)C=Cc2cc3ccccc3o2)C1` (stereo not shown), with 0.775%; and `C=CC(=O)N1CC(=O)N(C)C1c1ccccc1` (stereo not shown), with 1.17%.
Next, `CN1CCCC(C2OCCO2)C1` (stereo not shown): 3.68%; `C=CC(=O)NC1CC2(COC(C)C2)C1` (stereo not shown): 8.04%.
As for `COC(=O)c1ccc(Cl)cc1S(=O)(=O)F`, the Inhibition % is 96.1%.
`O=C(c1cccnc1S)N1CCOC2(CCCC2)C1`: the Inhibition % is listed as 6.34%.
On to `COc1cc(Cl)ccc1S(=O)(=O)n1nc(C)cc1C`, for which the Inhibition % is 9.02%.
Then `N#Cc1cn(Cc2ccccc2)nn1`, with 3.36%.
For the compound `NC(=O)C1CCN(C(=O)C=Cc2ccc(Cl)s2)CC1`, the Inhibition % worked out at 13.4%.
For the compound `O=c1ccccn1Cc1ccc(B(O)O)cc1`, the Inhibition % is on record as 11.4%.
Then `Cc1c(CNC2CCC3(CC2)OCCO3)cc(C#N)n1C`, with 5.64%; and `CC(C)N(C(=O)Cn1cnc(C#N)n1)C(C)C`, with 7.5%; and `Nc1ccc(N2CCC2=O)cc1`, with 16.5%.
Next, `O=C1OCCC1Sc1nncs1` (stereo not shown): 10.2%.
Next, `C=CC(=O)Nc1cc(C2CC2)no1`: 2.71%.
As for `O=C(CCl)Nc1ccc(N2CCCC2=O)cc1`, the Inhibition % came out at 9.28%.
Then `C=CC(=O)N1Cc2cccc(OC)c2C1`, with 4.99%; and `C=CC(=O)N1CCCC1c1ccccn1` (stereo not shown), with 14.3%; and `Cc1ccc(S(=O)(=O)n2nc(C)c(C)c2C)cc1`, with 3.34%.
As for `N#Cc1cc(F)c(N2CCCC(C3OCCO3)C2)c(F)c1` (stereo not shown), the Inhibition % is given as 8.98%.
Then `N#Cc1cnc(Oc2ccccc2)cn1`, with 11.6%.
For the compound `Cc1c(NC(=O)CCl)cccc1[N+](=O)[O-]`, the Inhibition % came out at 8.38%.
Then `C=CC(=O)NC1(Cc2cccc(F)c2)CCOCC1`, with 11.9%; and `C=CC(=O)N1CCCC2(CCOCC2)C1`, with 14.9%; and `C=CC(=O)Nc1cccc(F)c1`, with 7.3%.
Then `C=CC(=O)N1CCC(c2ccco2)C1` (stereo not shown), with 6.85%; and `Cc1cccnc1S`, with 12.6%; and `O=C(CCl)Nc1nc2c(s1)CCC2`, with 1.27%.
In the case of `C=CC(=O)N(C)C1CCN(S(C)(=O)=O)C1` (stereo not shown), the Inhibition % came to 1.26%.
Next, `COCC(C)CN(C)c1nc2ccccn2c1C#N` (stereo not shown): 4.52%.
For the compound `CC1(C)Cc2cc(C=C(C#N)C(=O)O)ccc2O1`, the Inhibition % was 14.7%.
Next, `N#Cc1ccc(N2C[C@H](F)C[C@H]2C(N)=O)cn1`: 2.16%; `NCC1CCCN1C(=O)C=Cc1ccc(Cl)s1` (stereo not shown): -0.809%; `C=CC(=O)NC(CO)C1CCCO1` (stereo not shown): 6.87%.
Then `COc1ccc(N2CCN(C(=O)CCl)CC2)cc1`, with 28.8%; and `Cc1ccc(NC(=O)CCl)cc1C`, with 34.8%.
Then `O=C(CCl)N(Cc1ccco1)c1ccccc1`, with 17.8%.
With `C=CC(=O)N[C@H]1C[C@H](OC)C1`, the Inhibition % worked out at 5.99%.
Next, `Cc1nc(C=CC(=O)N2CCCCCC2)cs1`: 4.8%.
For the compound `C=CC(=O)N1CCCC(c2nc(C)c(C)s2)C1` (stereo not shown), the Inhibition % came to 6.18%.
Then `C=CC(=O)N1CC(=O)N(C2CC2)C1`, with 2.52%; and `Cc1c(B2OC(C)(C)C(C)(C)O2)nnn1C`, with 9.99%.
Take `C=CC(=O)N1CCC(C)(C2CC2)CC1`: the Inhibition % was 8.76%.
For the compound `N#CC(=Cc1ccc(-c2ccccc2)cc1)C(N)=O`, the Inhibition % turned out to be 6.12%.
On to `C=CC(=O)N1CC2(CCOCC2)CC1C` (stereo not shown), for which the Inhibition % was found to be 15.7%.
`CNc1nccnc1C#N`: the Inhibition % is given as 3.27%.
Then `N#CC(=Cc1cccc(-c2ccncc2)c1)C(=O)O`, with 1.36%; and `C=CC(=O)N1CCC(CCC#N)CC1`, with 8.36%; and `C=CC(=O)N1CCCN(CC2CCCO2)CC1` (stereo not shown), with 13.1%.
Next, `CCOc1ccc2ccccc2c1C=C(C#N)C(N)=O`: 5.94%.
Then `CN(C)C(=O)Sc1ccc2c(c1)CCCC2=O`, with 4.76%.
For the compound `CC(C)Cc1nc(C#N)c(NCc2ccncc2)o1`, the Inhibition % was 6.94%.
On to `COC(=O)c1sccc1NC(=O)CCl`, for which the Inhibition % was found to be 3.83%.
Next, `O=C(CCl)NCc1ccco1`: 10.2%; `C=CC(=O)Nc1ccc(N(C)C)cc1`: 15.3%.
Then `CN(CCOc1ccccc1F)C(=O)CCl`, with 94.1%; and `CNC(=O)c1ccc(B2OC(C)(C)C(C)(C)O2)cc1C`, with 1.99%.
Next, `C=CC(=O)N1CCCC(CC#N)C1` (stereo not shown): 5.07%.
As for `COC(=O)c1cccc(S(=O)(=O)F)n1`, the Inhibition % was determined as 7.02%.
Then `C=CC(=O)NC1CCN(C)c2ccccc21` (stereo not shown), with 13.1%.
Then `OB(O)c1cc(F)ccc1OCC1CCOC1` (stereo not shown), with 4.59%; and `CC1(C)C(=O)NC1c1cccs1` (stereo not shown), with 5.37%; and `O=C(O)Cc1sc(O)nc1O`, with 8.54%.
Next, `C=CC(=O)N1CC2(CCC2)C1c1ccco1` (stereo not shown): 6.4%; `C=CC(=O)NCc1ccnc(C(F)(F)F)c1`: 11.3%; `c1ccn(CCC2CO2)c1` (stereo not shown): 4.81%.
Regarding `Cc1ccc(C=CS(=O)(=O)Nc2c(C)c(C)nn2C)cc1`, the Inhibition % is 8.21%.
In the case of `C=CC(=O)NC(C(=O)N1CCCC(C)C1)c1cnn(C)c1` (stereo not shown), the Inhibition % is given as 1.49%.
Next, `CC(C)(C)OC(=O)NCc1ccsc1B1OC(C)(C)C(C)(C)O1`: -0.214%.
Take `C=CC(=O)NC1CCC(C)(CC)CC1` (stereo not shown): the Inhibition % worked out at 6.32%.
Next, `C=CC(=O)N1CCC(c2ccon2)CC1`: 9.48%; `C=CC(=O)N1CC[C@@H](Oc2ccccc2)C1`: 3.37%.
Regarding `O=C(CCl)NCCCN1CCCCCC1=O`, the Inhibition % stood at 11.7%.

The record behind these values is publication PMC9574860, “Chemical Toolkit for PARK7: Potent, Selective, and High-Throughput” (Journal of Medicinal Chemistry, 2022).
